From a collection of fitness landscapes (doi:10.1016/j.celrep.2020.107928) come the findings set out here.

Whole data set: some 81,000 sequences, median “one-hybrid fitness for binding NBS DNA” near -0.1, cut for the highest 2% near 0.36. The list shows a part of the results.

To fix the notation:
B1: Caulobacter ParB omega fusion; a variant is named by its letters at X, in order, B8GW30 (parent)
chain: MESVVVGEPGMSEGRRGLGRGLSALLGEVDAAPAQAPGEQLGGSREAPIEILQRNPDQPRRTFREEDLEDLSNSIREKGVLQPILVRPSPDTAGEYQIVAGERAWRAAQRAGLKTVPIMVRELDDLAVLEIGIIENVQRADLNVLEEALSYKVLMEKFERTQENIAQTIGKSXSHVANXMRLLXLPDEVQSYLVSGELTAXHARAIAAAADPVALAKQIIEGGLSVRETEALARKAPNLSAGKSKGGRPPRVKDTDTQALESDLSSVLGLDVSIDHRGSTGTLTITYATLEQLDDLCNRLTRGI

Variants of B1 are the subject of this test. Nature of the test: one-hybrid fitness for binding NBS DNA (the Noc-binding site; scaled: cognate 1, non-cognate 0); higher = stronger binding. As to conditions: with NBS DNA site. In short, it runs like this: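 In E. coli USO, a HIS3 reporter with its site placed 19 bp from the promoter was used to select Caulobacter ParB variants randomised at four specificity codons. Growth lasted 48 hours at 37°C on histidine-free M9 containing 0.1 mM IPTG and 5 mM 3-AT. Fitness was taken as the log change in variant-to-wild-type read ratio from Illumina sequencing of pre- and post-selection plasmids, rescaled between the non-cognate and cognate sites.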
On to AIRC, for which the “one-hybrid fitness for binding NBS DNA” value was no more than 0.2.

As to LSYV, the “one-hybrid fitness for binding NBS DNA” value was no more than 0.2. Next, QQCY: no more than 0.2; ETSG: no more than 0.2; FLSR: no more than 0.2. To VRTW belongs no more than 0.2; to KRVT, 0.547; to RQFF, no more than 0.2.

In the case of PWTP, the “one-hybrid fitness for binding NBS DNA” value is no more than 0.2. For NWPS, the “one-hybrid fitness for binding NBS DNA” value is no more than 0.2. Next, SSCP: no more than 0.2; AQEM: no more than 0.2. Consider CKTL, for which the “one-hybrid fitness for binding NBS DNA” value was no more than 0.2.

Consider HHSE, for which the “one-hybrid fitness for binding NBS DNA” value is no more than 0.2. Turning to VQLR, the “one-hybrid fitness for binding NBS DNA” value was no more than 0.2. Next, ITTK: no more than 0.2. To ARFC belongs no more than 0.2; to CESW, no more than 0.2. Next, IVQA: no more than 0.2. Regarding YKIG, the “one-hybrid fitness for binding NBS DNA” value was no more than 0.2. To QCAD belongs no more than 0.2; to TNHG, no more than 0.2. To PWLL belongs no more than 0.2; to IPHF, no more than 0.2. To QVLR belongs 0.305; to PTVK, no more than 0.2; to EEPS, no more than 0.2. On to AHLK, for which the “one-hybrid fitness for binding NBS DNA” value was no more than 0.2. For VPKM, the “one-hybrid fitness for binding NBS DNA” value was no more than 0.2. To VRKC belongs no more than 0.2; to FLRR, no more than 0.2. Next, QGAL: no more than 0.2. To SMGT belongs no more than 0.2; to QDSI, no more than 0.2; to SKSY, no more than 0.2.

On to IKFC, for which the “one-hybrid fitness for binding NBS DNA” value is no more than 0.2. Next, NAGI: no more than 0.2; EHMY: no more than 0.2; WAWR: no more than 0.2. Next, PKNV: no more than 0.2; SVAG: no more than 0.2; DTSC: no more than 0.2. CSAR: the “one-hybrid fitness for binding NBS DNA” value is no more than 0.2. Next, HELG: no more than 0.2.

NNMR: the “one-hybrid fitness for binding NBS DNA” value is no more than 0.2. To VQAT belongs no more than 0.2; to SSRE, no more than 0.2. With TNDE, the “one-hybrid fitness for binding NBS DNA” value was no more than 0.2. To MDIK belongs no more than 0.2; to LALN, no more than 0.2; to LQHS, no more than 0.2.

With MESW, the “one-hybrid fitness for binding NBS DNA” value is no more than 0.2. Next, WQRW: no more than 0.2; TRGS: no more than 0.2. For MTRH, the “one-hybrid fitness for binding NBS DNA” value was no more than 0.2. Next, MTQT: no more than 0.2; KDDR: no more than 0.2. Next, LFYR: no more than 0.2.

In the case of RFQI, the “one-hybrid fitness for binding NBS DNA” value is no more than 0.2. Next, MQPG: no more than 0.2; VKWL: no more than 0.2; LMKQ: no more than 0.2. To LGEA belongs no more than 0.2. For VDYC, the “one-hybrid fitness for binding NBS DNA” value was no more than 0.2. To WSTR belongs no more than 0.2.

For the variant CVHR, the “one-hybrid fitness for binding NBS DNA” value is no more than 0.2. To HTGK belongs no more than 0.2.

As to HSTW, the “one-hybrid fitness for binding NBS DNA” value was no more than 0.2. To PCCA belongs no more than 0.2; to NQQG, no more than 0.2. In the case of PIRP, the “one-hybrid fitness for binding NBS DNA” value was no more than 0.2. To EHDG belongs no more than 0.2; to RWHF, no more than 0.2; to RYTP, no more than 0.2.

As to SMKD, the “one-hybrid fitness for binding NBS DNA” value was no more than 0.2.

DENK: the “one-hybrid fitness for binding NBS DNA” value was no more than 0.2.

For SFLH, the “one-hybrid fitness for binding NBS DNA” value was no more than 0.2. Consider CLTC, for which the “one-hybrid fitness for binding NBS DNA” value is no more than 0.2. In the case of VYIT, the “one-hybrid fitness for binding NBS DNA” value was no more than 0.2. For the variant CLRY, the “one-hybrid fitness for binding NBS DNA” value was no more than 0.2. To QRAI belongs 0.301; to GPMR, no more than 0.2; to HRKL, no more than 0.2. To SADY belongs no more than 0.2; to PQMC, no more than 0.2; to PIMY, no more than 0.2.

For the variant LWWF, the “one-hybrid fitness for binding NBS DNA” value is no more than 0.2. To NNID belongs no more than 0.2. Next, RISR: 0.386; HVII: no more than 0.2; IWLR: no more than 0.2. On to MLIS, for which the “one-hybrid fitness for binding NBS DNA” value was no more than 0.2. To STWV belongs no more than 0.2; to QHRM, 0.379.

Regarding KGCA, the “one-hybrid fitness for binding NBS DNA” value was no more than 0.2. Next, LAVV: no more than 0.2; TLPR: no more than 0.2. Take MKCY: the “one-hybrid fitness for binding NBS DNA” value is no more than 0.2. Next, AHMG: no more than 0.2; PEKR: no more than 0.2; ISCS: no more than 0.2. Next, SIFQ: no more than 0.2; VRPI: no more than 0.2; AEHM: no more than 0.2. To QANV belongs no more than 0.2. On to QSQK, for which the “one-hybrid fitness for binding NBS DNA” value is no more than 0.2. Next, RGAT: no more than 0.2; GYQM: no more than 0.2; HCLC: no more than 0.2. Next, LPNQ: no more than 0.2; CLKS: no more than 0.2. Turning to MVAV, the “one-hybrid fitness for binding NBS DNA” value was no more than 0.2.

For ALQM, the “one-hybrid fitness for binding NBS DNA” value is no more than 0.2. Turning to HACL, the “one-hybrid fitness for binding NBS DNA” value is no more than 0.2. Next, CGSW: no more than 0.2; WMAR: no more than 0.2; HSQK: no more than 0.2. To AVCE belongs no more than 0.2; to LCNS, no more than 0.2. To QMQN belongs no more than 0.2. As to EVQG, the “one-hybrid fitness for binding NBS DNA” value is no more than 0.2.

Regarding QWTA, the “one-hybrid fitness for binding NBS DNA” value is no more than 0.2. As to WQST, the “one-hybrid fitness for binding NBS DNA” value is no more than 0.2.

For the variant QRIT, the “one-hybrid fitness for binding NBS DNA” value worked out at 0.678. As for GATG, the “one-hybrid fitness for binding NBS DNA” value is no more than 0.2. To RFST belongs 0.217; to QFEE, no more than 0.2.

With RRFT, the “one-hybrid fitness for binding NBS DNA” value turned out to be 0.777.

With PGSN, the “one-hybrid fitness for binding NBS DNA” value was no more than 0.2. MCIC: the “one-hybrid fitness for binding NBS DNA” value is no more than 0.2. Regarding RKEF, the “one-hybrid fitness for binding NBS DNA” value was no more than 0.2.

Regarding DHTM, the “one-hybrid fitness for binding NBS DNA” value was no more than 0.2. SIQG: the “one-hybrid fitness for binding NBS DNA” value was no more than 0.2.

Regarding RDGC, the “one-hybrid fitness for binding NBS DNA” value was no more than 0.2. Next, KGAH: no more than 0.2. To SLEM belongs no more than 0.2; to MCYT, no more than 0.2; to FPVT, no more than 0.2. To WVHC belongs no more than 0.2; to DHNA, no more than 0.2; to FMQG, no more than 0.2. For the variant WSNT, the “one-hybrid fitness for binding NBS DNA” value was no more than 0.2.

For the variant IVKC, the “one-hybrid fitness for binding NBS DNA” value is no more than 0.2. To WFHS belongs no more than 0.2; to HPVG, no more than 0.2; to LGHA, no more than 0.2.

For LAKW, the “one-hybrid fitness for binding NBS DNA” value is no more than 0.2. To KMWD belongs no more than 0.2.

Take PSQA: the “one-hybrid fitness for binding NBS DNA” value is no more than 0.2. Next, GCHG: no more than 0.2; MDNT: no more than 0.2. Next, ADKD: no more than 0.2; QNVG: no more than 0.2.
